The source of these data is PMC9911399.

The list shows a part of the results.

In the assay the target is T1, RBFOX1 RRM (Homo sapiens) (UniProt Q9NWB1).
T1 sequence: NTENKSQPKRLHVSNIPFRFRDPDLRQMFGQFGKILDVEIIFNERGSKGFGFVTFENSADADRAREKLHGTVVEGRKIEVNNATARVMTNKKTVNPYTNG
In words: EMSA. As to conditions: HiTS-Eq, 1 nM pool, 10 min; buffer printed only for the single-RNA assays: 10 mM Tris pH 7.5, 150 mM NaCl, 3.4 mM EDTA, 0.001% NP-40, 30 C. In general terms: A gel shift assay detects complexes by their altered migration in electrophoresis.
The sequence “GGGAGACCGGAAUUCAGAUUGUCCCUCCCAAUUAAAUCCCGUCGUAGCCACCA / CAATCTGAATTCCGGTCTCCC / TGGTGGCTACGACGGGATT” showed a binding signal (KA relative to UGCAUGU) of 0.00361.

For the sequence “GGGAGACCGGAAUUCAGAUUGUCCGGCCCCAUUAAAUCCCGUCGUAGCCACCA / CAATCTGAATTCCGGTCTCCC / TGGTGGCTACGACGGGATT”, the binding signal (KA relative to UGCAUGU) is 0.0326.

Sequence “GGGAGACCGGAAUUCAGAUUGUCCGGGUCCCUUAAAUCCCGUCGUAGCCACCA / CAATCTGAATTCCGGTCTCCC / TGGTGGCTACGACGGGATT” showed a binding signal (KA relative to UGCAUGU) of 0.0227.

Sequence “GGGAGACCGGAAUUCAGAUUGUCCACUCCCUUUAAAUCCCGUCGUAGCCACCA / CAATCTGAATTCCGGTCTCCC / TGGTGGCTACGACGGGATT” displayed a binding signal (KA relative to UGCAUGU) of 0.00585.

Sequence “GGGAGACCGGAAUUCAGAUUGUCCGGUCACCUUAAAUCCCGUCGUAGCCACCA / CAATCTGAATTCCGGTCTCCC / TGGTGGCTACGACGGGATT” yielded a binding signal (KA relative to UGCAUGU) of 0.0121.

The sequence “GGGAGACCGGAAUUCAGAUUGUCCGUCUCCUUUAAAUCCCGUCGUAGCCACCA / CAATCTGAATTCCGGTCTCCC / TGGTGGCTACGACGGGATT” yielded a binding signal (KA relative to UGCAUGU) of 0.00833.

With “GGGAGACCGGAAUUCAGAUUGUCCGGCCACCUUAAAUCCCGUCGUAGCCACCA / CAATCTGAATTCCGGTCTCCC / TGGTGGCTACGACGGGATT”, the binding signal (KA relative to UGCAUGU) came out at 0.003.

“GGGAGACCGGAAUUCAGAUUGUCCUCCCUCAUUAAAUCCCGUCGUAGCCACCA / CAATCTGAATTCCGGTCTCCC / TGGTGGCTACGACGGGATT” registered a binding signal (KA relative to UGCAUGU) of 0.00648.

Turning to “GGGAGACCGGAAUUCAGAUUGUCCGGUUCUCUUAAAUCCCGUCGUAGCCACCA / CAATCTGAATTCCGGTCTCCC / TGGTGGCTACGACGGGATT”, the binding signal (KA relative to UGCAUGU) was 0.0401.

Consider “GGGAGACCGGAAUUCAGAUUGUCCCUCCCUCUUAAAUCCCGUCGUAGCCACCA / CAATCTGAATTCCGGTCTCCC / TGGTGGCTACGACGGGATT”, for which the binding signal (KA relative to UGCAUGU) stood at 0.000346.

Consider “GGGAGACCGGAAUUCAGAUUGUCCGGCUCCAUUAAAUCCCGUCGUAGCCACCA / CAATCTGAATTCCGGTCTCCC / TGGTGGCTACGACGGGATT”, for which the binding signal (KA relative to UGCAUGU) turned out to be 0.00101.

“GGGAGACCGGAAUUCAGAUUGUCCCCUCCGGUUAAAUCCCGUCGUAGCCACCA / CAATCTGAATTCCGGTCTCCC / TGGTGGCTACGACGGGATT” had a binding signal (KA relative to UGCAUGU) of 0.000591.

On to “GGGAGACCGGAAUUCAGAUUGUCCGGUCCGAUUAAAUCCCGUCGUAGCCACCA / CAATCTGAATTCCGGTCTCCC / TGGTGGCTACGACGGGATT”, for which the binding signal (KA relative to UGCAUGU) came to 0.00302.

“GGGAGACCGGAAUUCAGAUUGUCCCCCUCCCUUAAAUCCCGUCGUAGCCACCA / CAATCTGAATTCCGGTCTCCC / TGGTGGCTACGACGGGATT” yielded a binding signal (KA relative to UGCAUGU) of 0.00751.

With “GGGAGACCGGAAUUCAGAUUGUCCCCCACGAUUAAAUCCCGUCGUAGCCACCA / CAATCTGAATTCCGGTCTCCC / TGGTGGCTACGACGGGATT”, the binding signal (KA relative to UGCAUGU) came to 0.00247.

Take “GGGAGACCGGAAUUCAGAUUGUCCCGGUCUCUUAAAUCCCGUCGUAGCCACCA / CAATCTGAATTCCGGTCTCCC / TGGTGGCTACGACGGGATT”: the binding signal (KA relative to UGCAUGU) was found to be 0.0321.

“GGGAGACCGGAAUUCAGAUUGUCCCCCCGGUUUAAAUCCCGUCGUAGCCACCA / CAATCTGAATTCCGGTCTCCC / TGGTGGCTACGACGGGATT” yielded a binding signal (KA relative to UGCAUGU) of 0.0165.

Consider “GGGAGACCGGAAUUCAGAUUGUCCGGUCCCUUUAAAUCCCGUCGUAGCCACCA / CAATCTGAATTCCGGTCTCCC / TGGTGGCTACGACGGGATT”, for which the binding signal (KA relative to UGCAUGU) worked out at 0.00558.

Sequence “GGGAGACCGGAAUUCAGAUUGUCCUUCUCCCUUAAAUCCCGUCGUAGCCACCA / CAATCTGAATTCCGGTCTCCC / TGGTGGCTACGACGGGATT” came in with a binding signal (KA relative to UGCAUGU) of 0.015.

Sequence “GGGAGACCGGAAUUCAGAUUGUCCUCCCCGAUUAAAUCCCGUCGUAGCCACCA / CAATCTGAATTCCGGTCTCCC / TGGTGGCTACGACGGGATT” returned a binding signal (KA relative to UGCAUGU) of 0.00842.

Regarding “GGGAGACCGGAAUUCAGAUUGUCCGGUCCUCUUAAAUCCCGUCGUAGCCACCA / CAATCTGAATTCCGGTCTCCC / TGGTGGCTACGACGGGATT”, the binding signal (KA relative to UGCAUGU) was found to be 0.0341.

In turn, “GGGAGACCGGAAUUCAGAUUGUCCGGUCCACUUAAAUCCCGUCGUAGCCACCA / CAATCTGAATTCCGGTCTCCC / TGGTGGCTACGACGGGATT” yielded a binding signal (KA relative to UGCAUGU) of 0.00584.

Take “GGGAGACCGGAAUUCAGAUUGUCCCCCAUACUUAAAUCCCGUCGUAGCCACCA / CAATCTGAATTCCGGTCTCCC / TGGTGGCTACGACGGGATT”: the binding signal (KA relative to UGCAUGU) is 0.00259.

The sequence “GGGAGACCGGAAUUCAGAUUGUCCACUCCCAUUAAAUCCCGUCGUAGCCACCA / CAATCTGAATTCCGGTCTCCC / TGGTGGCTACGACGGGATT” displayed a binding signal (KA relative to UGCAUGU) of 0.00145.

“GGGAGACCGGAAUUCAGAUUGUCCGGGACCCUUAAAUCCCGUCGUAGCCACCA / CAATCTGAATTCCGGTCTCCC / TGGTGGCTACGACGGGATT” returned a binding signal (KA relative to UGCAUGU) of 0.0206.

Regarding “GGGAGACCGGAAUUCAGAUUGUCCGGUCUGCUUAAAUCCCGUCGUAGCCACCA / CAATCTGAATTCCGGTCTCCC / TGGTGGCTACGACGGGATT”, the binding signal (KA relative to UGCAUGU) stood at 0.0698.

“GGGAGACCGGAAUUCAGAUUGUCCGGACCCCUUAAAUCCCGUCGUAGCCACCA / CAATCTGAATTCCGGTCTCCC / TGGTGGCTACGACGGGATT” displayed a binding signal (KA relative to UGCAUGU) of 0.0146.

Sequence “GGGAGACCGGAAUUCAGAUUGUCCGCUCCCAUUAAAUCCCGUCGUAGCCACCA / CAATCTGAATTCCGGTCTCCC / TGGTGGCTACGACGGGATT” came in with a binding signal (KA relative to UGCAUGU) of 0.00622.

As for “GGGAGACCGGAAUUCAGAUUGUCCCCCCGCCUUAAAUCCCGUCGUAGCCACCA / CAATCTGAATTCCGGTCTCCC / TGGTGGCTACGACGGGATT”, the binding signal (KA relative to UGCAUGU) worked out at 0.004.

“GGGAGACCGGAAUUCAGAUUGUCCGGUCAAAUUAAAUCCCGUCGUAGCCACCA / CAATCTGAATTCCGGTCTCCC / TGGTGGCTACGACGGGATT” gave a binding signal (KA relative to UGCAUGU) of 0.00184.

As to “GGGAGACCGGAAUUCAGAUUGUCCCCCAUCCUUAAAUCCCGUCGUAGCCACCA / CAATCTGAATTCCGGTCTCCC / TGGTGGCTACGACGGGATT”, the binding signal (KA relative to UGCAUGU) is 0.0092.

Turning to “GGGAGACCGGAAUUCAGAUUGUCCCCCUACCUUAAAUCCCGUCGUAGCCACCA / CAATCTGAATTCCGGTCTCCC / TGGTGGCTACGACGGGATT”, the binding signal (KA relative to UGCAUGU) amounted to 0.00333.

For the sequence “GGGAGACCGGAAUUCAGAUUGUCCCCCACUCUUAAAUCCCGUCGUAGCCACCA / CAATCTGAATTCCGGTCTCCC / TGGTGGCTACGACGGGATT”, the binding signal (KA relative to UGCAUGU) was 0.00531.

Regarding “GGGAGACCGGAAUUCAGAUUGUCCCCCACAUUUAAAUCCCGUCGUAGCCACCA / CAATCTGAATTCCGGTCTCCC / TGGTGGCTACGACGGGATT”, the binding signal (KA relative to UGCAUGU) was 0.00553.

“GGGAGACCGGAAUUCAGAUUGUCCUCCCCCAUUAAAUCCCGUCGUAGCCACCA / CAATCTGAATTCCGGTCTCCC / TGGTGGCTACGACGGGATT” registered a binding signal (KA relative to UGCAUGU) of 0.000355.

In turn, “GGGAGACCGGAAUUCAGAUUGUCCGACGGGAUUAAAUCCCGUCGUAGCCACCA / CAATCTGAATTCCGGTCTCCC / TGGTGGCTACGACGGGATT” had a binding signal (KA relative to UGCAUGU) of 0.0133.

The sequence “GGGAGACCGGAAUUCAGAUUGUCCCCCGCACUUAAAUCCCGUCGUAGCCACCA / CAATCTGAATTCCGGTCTCCC / TGGTGGCTACGACGGGATT” gave a binding signal (KA relative to UGCAUGU) of 0.00744.

In turn, “GGGAGACCGGAAUUCAGAUUGUCCUCCCCUAUUAAAUCCCGUCGUAGCCACCA / CAATCTGAATTCCGGTCTCCC / TGGTGGCTACGACGGGATT” registered a binding signal (KA relative to UGCAUGU) of 0.00209.

Sequence “GGGAGACCGGAAUUCAGAUUGUCCCCAACCCUUAAAUCCCGUCGUAGCCACCA / CAATCTGAATTCCGGTCTCCC / TGGTGGCTACGACGGGATT” registered a binding signal (KA relative to UGCAUGU) of 0.00259.
